Results: ChEMBL document CHEMBL4689842, “EUbOPEN Chemogenomics Library wave 1” (2021)

What was measured:
Type in all cases: toxicity, cell-based
[1] = tested on: U2OS; test: Multiplex assay against U2OS; conditions: human
Procedure, shortened: (§1)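 Imaging took place on a CQ1 microscope at 37°C and 5% CO2 once compound had been added to live cells stained at seeding with Hoechst33342, BioTracker Green Microtubule Cytoskeleton Dye, MitoTracker Red and Annexin V Alexa Fluor 680. CellPathfinder machine-learning gating classed cells as Hoechst high-intensity objects or normal cells, classed normal cells as having healthy, pyknosed or fragmented nuclei, and classed pyknosed cells as mitotic or apoptotic. Tubulin, mitochondrial-mass and membrane-permeability phenotypes are per cents of the healthy-nucleus cells.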

[2] = tested on: HEK-293T; test: Multiplex assay against HEK293T; conditions: human; procedure, shortened: as §1;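 for Population Tubulin-Different-Phenotype (%): share of the cells with healthy nuclei that show this phenotype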
[3] = tested on: Fibroblast; test: Multiplex assay against human fibroblast; procedure, shortened: as §1
[4] = 12 h, 10 µM, compound concentration 10 uM, replicate 1
[5] = 12 h, 10 µM, compound concentration 10 uM, replicate 2
[6] = 24 h, 10 µM, compound concentration 10 uM, replicate 2
[7] = 24 h, 10 µM, compound concentration 10 uM, replicate 1
[8] = 12 h, 1 µM, compound concentration 1 uM, replicate 1
[9] = 12 h, 1 µM, compound concentration 1 uM, replicate 2
[10] = 24 h, 1 µM, compound concentration 1 uM, replicate 1
[11] = 24 h, 1 µM, compound concentration 1 uM, replicate 2

Compound: Cc1c(Nc2ccc(S(=O)(=O)N3CCN(C)CC3)cc2F)nc2ccc(-c3cnn(C4CC4)c3)cn2c1=O
- Population Membrane Permeable-Phenotype (%) [1, 4]: 27% and 7%
- Population Mitochondria Different-Phenotype (%) [1, 4]: 7% and 22%
- Population Apoptotic (%) [1, 5]: 20% and 64%
- Total Cell Count [1, 5]: 129 and 36
- Total Cell Count [1, 6]: 152 and 43
- Population Mitochondria Different-Phenotype (%) [2, 4]: 49% and 10%
- Population Mitochondria Different-Phenotype (%) [2, 5]: 53% and 12%
- Population Pyknosed Nuclei (%) [2, 5]: 52% and 6%
- Total Cell Count [2, 5]: 261 and 1362
- Population Fragmented Nuclei (%) [2, 7]: 44% and 12%
- Population Hoechst High Intensity Objects (%) [2, 7]: 43% and 13%
- Population Mitochondria Different-Phenotype (%) [2, 7]: 48% and 9%
- Population Apoptotic (%) [2, 6]: 23% and 6%
- Population Hoechst High Intensity Objects (%) [2, 6]: 24% and 7%
- Population Membrane Permeable-Phenotype (%) [2, 6]: 4% and 22%
- Population Mitochondria Different-Phenotype (%) [2, 6]: 45% and 2%
- Population Pyknosed Nuclei (%) [2, 6]: 46% and 4%
- Total Cell Count [2, 6]: 284 and 1886
- Population Mitochondria Different-Phenotype (%) [3, 5]: 1% and 23%
- Population Pyknosed Nuclei (%) [3, 5]: 23% and 3%
- Total Cell Count [3, 5]: 1176 and 36
- Population Mitochondria Different-Phenotype (%) [3, 7]: 1% and 4%
- Population Pyknosed Nuclei (%) [3, 6]: 3% and 22%
- Population Tubulin-Different-Phenotype (%) [3, 6]: 13% and 3%
- Total Cell Count [3, 6]: 43 and 1103

Compound: CN1CCN(Cc2ccc(-c3cnc4[nH]cc(-c5ccc6[nH]ccc6c5)c4c3)cc2)CC1
- Population Fragmented Nuclei (%) [1, 4]: 25% and 5%
- Population Healthy Nuclei (%) [1, 4]: 7%, 22%, 92%
- Population Pyknosed Nuclei (%) [1, 4]: 67%, 60%, 2%
- Population Tubulin-Different-Phenotype (%) [1, 4]: 97% and 26%
- Population Apoptotic (%) [1, 5]: 85%, 63%, 0%
- Population Healthy Nuclei (%) [1, 5]: 10%, 37%, 85%
- Population Mitotic Cells (%) [1, 5]: 14%, 36%, 100%
- Population Pyknosed Nuclei (%) [1, 5]: 72%, 48%, 1%
- Population Tubulin-Different-Phenotype (%) [1, 5]: 100% and 15%
- Population Fragmented Nuclei (%) [1, 7]: 35%, 19%, 11%
- Population Healthy Nuclei (%) [1, 7]: 1%, 14%, 81%
- Population Hoechst High Intensity Objects (%) [1, 7]: 9%, 23%, 6%
- Population Mitochondria Different-Phenotype (%) [1, 7]: 100%, 85%, 29%
- Population Mitotic Cells (%) [1, 7]: 1%, 6%, 35%
- Population Pyknosed Nuclei (%) [1, 7]: 62%, 66%, 7%
- Population Tubulin-Different-Phenotype (%) [1, 7]: 100% and 19%
- Population Fragmented Nuclei (%) [1, 6]: 29%, 5%, 12%
- Population Healthy Nuclei (%) [1, 6]: 6%, 25%, 78%
- Population Hoechst High Intensity Objects (%) [1, 6]: 18%, 33%, 10%
- Population Mitotic Cells (%) [1, 6]: 4%, 0%, 33%
- Population Pyknosed Nuclei (%) [1, 6]: 64%, 69%, 8%
- Population Apoptotic (%) [2, 4]: 19%, 78%, 20%
- Population Healthy Nuclei (%) [2, 4]: 28%, 4%, 61%
- Population Mitochondria Different-Phenotype (%) [2, 4]: 17%, 100%, 6%
- Population Mitotic Cells (%) [2, 4]: 80%, 21%, 79%
- Population Tubulin-Different-Phenotype (%) [2, 4]: 88%, 87%, 10%
- Total Cell Count [2, 4]: 932, 243, 700
- Population Apoptotic (%) [2, 5]: 72%, 7%, 16%
- Population Fragmented Nuclei (%) [2, 5]: 8%, 5%, 2%
- Population Healthy Nuclei (%) [2, 5]: 3%, 87%, 79%
- Population Hoechst High Intensity Objects (%) [2, 5]: 12% and 2%
- Population Mitochondria Different-Phenotype (%) [2, 5]: 83%, 7%, 27%
- Population Mitotic Cells (%) [2, 5]: 27%, 92%, 83%
- Population Pyknosed Nuclei (%) [2, 5]: 87%, 7%, 17%
- Total Cell Count [2, 5]: 188, 1439, 1248
- Population Apoptotic (%) [2, 7]: 43%, 87%, 19%
- Population Healthy Nuclei (%) [2, 7]: 17%, 2%, 67%
- Population Mitochondria Different-Phenotype (%) [2, 7]: 51% and 5%
- Population Mitotic Cells (%) [2, 7]: 56%, 12%, 80%
- Population Pyknosed Nuclei (%) [2, 7]: 65%, 81%, 14%
- Population Tubulin-Different-Phenotype (%) [2, 7]: 72%, 66%, 14%
- Total Cell Count [2, 7]: 802, 218, 682
- Population Apoptotic (%) [2, 6]: 92%, 22%, 1%
- Population Fragmented Nuclei (%) [2, 6]: 17%, 3%, 12%
- Population Healthy Nuclei (%) [2, 6]: 3%, 53%, 84%
- Population Hoechst High Intensity Objects (%) [2, 6]: 21% and 6%
- Population Mitochondria Different-Phenotype (%) [2, 6]: 100%, 64%, 2%
- Population Mitotic Cells (%) [2, 6]: 7%, 77%, 98%
- Population Pyknosed Nuclei (%) [2, 6]: 79%, 43%, 2%
- Population Tubulin-Different-Phenotype (%) [2, 6]: 100%, 98%, 29%
- Total Cell Count [2, 6]: 171, 1157, 2308
- Population Healthy Nuclei (%) [3, 4]: 17%, 49%, 6%
- Population Membrane Permeable-Phenotype (%) [3, 4]: 17%, 3%, 16%
- Population Mitochondria Different-Phenotype (%) [3, 4]: 23%, 1%, 33%
- Population Mitotic Cells (%) [3, 4]: 52% and 14%
- Population Pyknosed Nuclei (%) [3, 4]: 54%, 11%, 58%
- Population Tubulin-Different-Phenotype (%) [3, 4]: 11%, 0%, 83%
- Population Fragmented Nuclei (%) [3, 5]: 69%, 58%, 17%
- Population Healthy Nuclei (%) [3, 5]: 28%, 8%, 10%
- Population Hoechst High Intensity Objects (%) [3, 5]: 30%, 35%, 6%
- Population Membrane Permeable-Phenotype (%) [3, 5]: 13%, 75%, 40%
- Population Mitochondria Different-Phenotype (%) [3, 5]: 13%, 0%, 100%
- Population Pyknosed Nuclei (%) [3, 5]: 2%, 32%, 72%
- Population Tubulin-Different-Phenotype (%) [3, 5]: 31%, 75%, 100%
- Population Healthy Nuclei (%) [3, 7]: 10%, 34%, 8%
- Population Membrane Permeable-Phenotype (%) [3, 7]: 26%, 1%, 42%
- Population Mitochondria Different-Phenotype (%) [3, 7]: 26%, 0%, 14%
- Population Pyknosed Nuclei (%) [3, 7]: 39%, 6%, 44%
- Population Tubulin-Different-Phenotype (%) [3, 7]: 21%, 0%, 100%
- Total Cell Count [3, 7]: 212, 442, 112
- Population Fragmented Nuclei (%) [3, 6]: 74% and 5%
- Population Membrane Permeable-Phenotype (%) [3, 6]: 12%, 100%, 50%
- Population Mitochondria Different-Phenotype (%) [3, 6]: 12%, 100%, 25%
- Population Mitotic Cells (%) [3, 6]: 50% and 0%
- Population Pyknosed Nuclei (%) [3, 6]: 2%, 69%, 14%
- Population Tubulin-Different-Phenotype (%) [3, 6]: 8% and 50%

Compound: c1ccc(-c2oc3ncnc(NC[C@@H]4CCCO4)c3c2-c2ccccc2)cc1
- Population Hoechst High Intensity Objects (%) [1, 8]: 1% and 4%
- Population Membrane Permeable-Phenotype (%) [1, 8]: 72% and 8%
- Population Tubulin-Different-Phenotype (%) [1, 8]: 91% and 17%
- Population Membrane Permeable-Phenotype (%) [1, 9]: 66% and 20%
- Population Tubulin-Different-Phenotype (%) [1, 9]: 98% and 20%
- Population Membrane Permeable-Phenotype (%) [1, 10]: 68% and 8%
- Population Apoptotic (%) [1, 11]: 92% and 20%
- Population Membrane Permeable-Phenotype (%) [1, 11]: 61% and 13%
- Population Mitotic Cells (%) [1, 11]: 8% and 80%
- Population Pyknosed Nuclei (%) [1, 11]: 17% and 3%
- Population Tubulin-Different-Phenotype (%) [1, 11]: 89% and 24%
- Population Membrane Permeable-Phenotype (%) [2, 8]: 40% and 3%
- Population Mitochondria Different-Phenotype (%) [2, 8]: 13% and 4%
- Population Tubulin-Different-Phenotype (%) [2, 8]: 80% and 3%
- Population Apoptotic (%) [2, 9]: 13% and 2%
- Population Fragmented Nuclei (%) [2, 9]: 2% and 11%
- Population Membrane Permeable-Phenotype (%) [2, 9]: 31% and 2%
- Population Mitochondria Different-Phenotype (%) [2, 9]: 37% and 6%
- Population Pyknosed Nuclei (%) [2, 9]: 23% and 4%
- Population Tubulin-Different-Phenotype (%) [2, 9]: 96% and 8%
- Population Membrane Permeable-Phenotype (%) [2, 10]: 38% and 8%
- Population Mitochondria Different-Phenotype (%) [2, 10]: 23% and 3%
- Population Pyknosed Nuclei (%) [2, 10]: 23% and 7%
- Population Tubulin-Different-Phenotype (%) [2, 10]: 91% and 5%
- Population Fragmented Nuclei (%) [2, 11]: 4% and 31%
- Population Membrane Permeable-Phenotype (%) [2, 11]: 27% and 6%
- Population Mitochondria Different-Phenotype (%) [2, 11]: 40% and 1%
- Population Pyknosed Nuclei (%) [2, 11]: 21% and 2%
- Population Tubulin-Different-Phenotype (%) [2, 11]: 98% and 9%
- Population Tubulin-Different-Phenotype (%) [3, 8]: 20% and 91%
- Population Mitochondria Different-Phenotype (%) [3, 10]: 41% and 4%
- Population Tubulin-Different-Phenotype (%) [3, 10]: 92% and 16%
- Population Mitochondria Different-Phenotype (%) [3, 11]: 6% and 57%

Compound: CNC(=O)Nc1ccc2c(c1)CC[C@@]21OC(=O)N(CC(=O)N(Cc2ccc(F)cc2)[C@@H](C)C(F)(F)F)C1=O [A-485]
- Population Membrane Permeable-Phenotype (%) [1, 8]: 66% and 14%
- Population Membrane Permeable-Phenotype (%) [1, 9]: 64% and 20%
- Population Tubulin-Different-Phenotype (%) [1, 9]: 37% and 9%
- Population Apoptotic (%) [1, 10]: 6% and 33%
- Population Pyknosed Nuclei (%) [1, 11]: 13% and 2%
- Population Membrane Permeable-Phenotype (%) [2, 8]: 28% and 7%
- Population Tubulin-Different-Phenotype (%) [2, 8]: 52% and 8%
- Population Membrane Permeable-Phenotype (%) [2, 9]: 20% and 4%
- Population Tubulin-Different-Phenotype (%) [2, 9]: 79% and 14%
- Population Mitochondria Different-Phenotype (%) [2, 11]: 9% and 2%
- Population Tubulin-Different-Phenotype (%) [2, 11]: 83% and 17%
- Population Membrane Permeable-Phenotype (%) [3, 8]: 18% and 3%
- Population Mitochondria Different-Phenotype (%) [3, 8]: 9% and 1%
- Population Tubulin-Different-Phenotype (%) [3, 8]: 37% and 8%
- Population Apoptotic (%) [3, 9]: 33% and 100%
- Population Mitotic Cells (%) [3, 9]: 66% and 0%
- Population Mitochondria Different-Phenotype (%) [3, 10]: 14% and 3%
- Population Membrane Permeable-Phenotype (%) [3, 11]: 35% and 7%

Some entries of the source have several records that differ or are many. Only these are listed. An entry can have further records. Values given together repeat one measurement across runs, samples, wells, individuals or studies.
